Assay results published in the supplement of paper PMC4723716.
± gives the uncertainty stated by the source. The full ranking holds about 9,900 compounds; the median of “viability index relative to DMSO control” is about 1, and the lowest 2% start at about 0.85. The list shows a part of the results.

tested on: Plasmodium falciparum NF54 stage V gametocytes; experiment: viability index relative to DMSO control (fraction); higher = less gametocyte killing; conditions: 2.5 µM, library set: Broad Institute DOS, incubation time: 72 h
Procedure, shortened: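 In 1,536-well plates, 10 µl of serum-free medium holding P. falciparum NF54 stage V gametocytes (0.75% gametocytemia, 1.25% hematocrit) received compound at 2.5 µM for 72 hr at 37°C in low oxygen. After one to two hours with 3 µl of 2.5 µM MitoTracker Red CMXRos containing 0.13% saponin, red particles of 20–70 µm2 were counted in a single field per well. Viability index is reported as the particle count over the plate mean of wells treated with solvent only.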

SMILES | viability index
C[C@H]1CN([C@@H](C)CO)C(=O)c2ccccc2-c2ccccc2CO[C@@H]1CN(C)Cc1ccccc1C(F)(F)F | 0.843 ± 0.028
CO[C@H]1CC[C@@H]2CCOc3ccc(C#N)cc3C(=O)N(C)C[C@@H](c3ccccc3)CC(=O)N(C)C[C@H]1O2 | 1.04 ± 0.024
CN1C[C@@H]2[C@H](c3ccccc31)[C@@H](CO)N2Cc1ccccc1Cl | 1.01 ± 0.035
CN1C(=O)c2cc(NC(=O)Cc3cccs3)ccc2OC[C@@H]2O[C@@H](CC(=O)NCC3CCCCC3)CC[C@@H]21 | 1.11 ± 0.068
COc1ccccc1-c1ccc([C@H]2[C@@H](CO)N3CCCCN(C(=O)c4cccnc4)C[C@H]23)cc1 | 0.9761 ± 0.0016
CO[C@H]1CN(C)C(=O)c2cc(NC(=O)CC(F)(F)F)ccc2OC[C@@H](C)N(CC2CC2)C[C@@H]1C | 1.06 ± 0.02
COc1ccccc1NC(=O)N1C[C@@H](O)COC[C@H]2O[C@H](CC(=O)N3CCC(Cc4ccccc4)CC3)CC[C@@H]21 | 1 ± 0.15
O=C(C[C@H]1C=C[C@@H](NC(=O)Nc2ccccc2F)[C@@H](CO)O1)NCc1ccc(-c2ccccc2)cc1 | 1.06 ± 0.033
COc1ccccc1CNC(=O)C[C@@H]1CC[C@H]2[C@H](COc3ccc(NC(C)=O)cc3C(=O)N2C)O1 | 1.05 ± 0.08
COc1ccc2c3c([nH]c2c1)[C@H](CO)N(C[C@]31CCN(CC2CCOCC2)CC1)C(=O)Nc1ccc(F)cc1 | 0.99 ± 0.053
Cc1ccc(S(=O)(=O)N(C)C[C@@H]2Oc3cc(C#CC4CCCC4)ccc3S(=O)(=O)N([C@H](C)CO)C[C@@H]2C)cc1 | 0.943 ± 0.17
CO[C@H]1CC[C@@H]2CCN(C)C(=O)[C@@H](C)CN(C)C(=O)c3cc(C#N)ccc3OC[C@H]1O2 | 1.036 ± 0.0093
Cc1cccc(-c2ccc([C@@H]3[C@@H]4CN(C(=O)c5ccncc5)C[C@H]3N4)cc2)c1 | 1.09 ± 0.12
COCC(=O)N1C[C@@H]2[C@H](c3ccccc31)[C@@H](CO)N2Cc1cc(F)ccc1F | 0.985 ± 0.022
COc1ccc2c3c([C@H](CO)N(C[C@]33CN(C3)C(C)=O)C(=O)c3ccncc3)n(C)c2c1 | 1.01 ± 0.062
C[C@@H]1CN([C@@H](C)CO)C(=O)Cc2cc(NC(=O)CCCCCC(=O)Nc3ccccc3N)ccc2O[C@H]1CN(C)S(=O)(=O)c1cccs1 | 0.993 ± 0.02
CO[C@H]1CC[C@H]2CCN(C)C(=O)CCCN(C)C(=O)c3cc(C#N)ccc3OC[C@@H]1O2 | 0.968 ± 0.026
CC(C)NC(=O)N1[C@@H](CO)[C@H](c2ccccc2)C12CN(C(=O)c1ccccn1)C2 | 1.05 ± 0.016
CO[C@@H]1CC[C@@H]2CCN(C)C(=O)CCCN(C)C(=O)c3cc(C#N)ccc3OC[C@H]1O2 | 0.935 ± 0.043
CC(C)NC(=O)N(C)C[C@@H]1Oc2ccc(NC(=O)Cc3ccccc3)cc2CC(=O)N([C@H](C)CO)C[C@H]1C | 0.978 ± 0.075
COc1ccc2c3c([nH]c2c1)[C@H](CO)N(C[C@]31CN(CC2CCOCC2)C1)C(=O)Nc1c(C)noc1C | 0.9942 ± 0.0039
C/C=C/c1ccccc1[C@H]1[C@@H](C#N)N(C(=O)CN2CCOCC2)[C@@H]1CO | 1.1 ± 0.056
CCS(=O)(=O)Nc1ccc2c(c1)C(=O)N(C)[C@H]1CC[C@H](CC(=O)NCc3ccccc3F)O[C@@H]1CO2 | 1.15 ± 0.15

SMILES | viability index
C[C@@H]1CN([C@@H](C)CO)C(=O)c2cccc(NC(=O)c3nc4ccccc4s3)c2O[C@@H]1CN(C)C(=O)Nc1ccc2c(c1)OCO2 | 0.936 ± 0.13
C[C@H]1CN([C@@H](C)CO)C(=O)c2cc(C3=CCCCC3)cnc2O[C@@H]1CN(C)S(=O)(=O)c1cn(C)cn1 | 1.07 ± 0.074
O=C(C[C@@H]1C[C@@H]2c3cc(NS(=O)(=O)c4ccc(F)cc4)ccc3O[C@@H]2[C@H](CO)O1)NCc1cccnc1 | 1.065 ± 0.0092
C[C@H](NC(=O)C[C@H]1C=C[C@H](NC(=O)c2cccnc2)[C@H](CO)O1)c1ccccc1 | 0.95 ± 0.065
C[C@@H]1CN([C@@H](C)CO)C(=O)Cc2cc(NC(=O)C3CCCCC3)ccc2O[C@H]1CN(C)Cc1ccc(Cl)c(Cl)c1 | 0.892 ± 0.028
C[C@H]1C/C=C/C[C@@H](c2ccc3c(c2)OCO3)NC(=O)[C@H](C)N(C)C(=O)c2ccccc2O1.C[C@H]1C/C=C\C[C@@H](c2ccc3c(c2)OCO3)NC(=O)[C@H](C)N(C)C(=O)c2ccccc2O1 | 0.967 ± 0.0031
COCC(=O)Nc1ccc2c(c1)C(=O)N(C)[C@@H]1CC[C@@H](CC(=O)NCCCN(C)C)O[C@H]1CO2 | 0.9944 ± 0.0065
CCC(=O)N1C[C@H](O)COC[C@@H]2O[C@H](CC(=O)NCc3ccc(Oc4ccccc4)cc3)CC[C@H]21 | 0.951 ± 0.11
Cc1noc(C)c1S(=O)(=O)N(C)C[C@@H]1OCCCC[C@H](C)Oc2ccc(N(C)C)cc2C(=O)N([C@@H](C)CO)C[C@H]1C | 0.994 ± 0.018
Cc1noc(C)c1NC(=O)N[C@@H]1C=C[C@H](CC(=O)Nc2ccc(-c3ccccc3)cc2)O[C@@H]1CO | 0.951 ± 0.063
COc1ccc2c3c([C@@H](CO)N(C[C@]33CN(Cc4nccs4)C3)C(=O)CN(C)C)n(C)c2c1 | 0.998 ± 0.1
CCN(C[C@H]1[C@H](c2ccc(C3=CCCCC3)cc2)[C@H](CO)N1CC1CC1)C(C)=O | 0.961 ± 0.084
O=C(Nc1ccc2c(c1)[C@H]1C[C@H](CC(=O)N3CCCCC3)O[C@H](CO)[C@H]1O2)NC1CCCCC1 | 0.998 ± 0.034
Cn1cnc(CCNC(=O)C[C@@H]2CC[C@H]3[C@@H](COC[C@H](O)CN3C(=O)Nc3ccc(C(F)(F)F)cc3)O2)c1 | 0.96 ± 0.034
Cc1nn(C)cc1NC(=O)C[C@@H]1CC[C@H]2[C@@H](COc3ccc(NC(=O)C4CCOCC4)cc3C(=O)N2C)O1 | 1.04 ± 0.087
COCC(=O)N1[C@H](C(=O)Nc2ccccc2)[C@@H](CO)[C@@H]2Cn3c(ccc(-c4ccncc4)c3=O)[C@@H]21 | 1.03 ± 0.057
O=C(Nc1cccc(Cl)c1)N[C@H]1CC[C@@H](CCn2cc(Cc3ccccc3)nn2)O[C@@H]1CO | 1.14 ± 0.025
CO[C@H](CN(C)S(=O)(=O)c1ccc(C)cc1)[C@H](C)CN(C(=O)Nc1ccccc1F)[C@H](C)CO | 1.06 ± 0.026
O=C(C[C@@H]1CC[C@H]2NC[C@H](O)COC[C@@H]2O1)Nc1ccc(-c2ccccc2)cc1 | 0.92 ± 0.05
Cn1cnc(S(=O)(=O)N2C[C@H](O)COC[C@H]3O[C@H](CC(=O)NCc4cccc(F)c4)CC[C@@H]32)c1 | 1.04 ± 0.083
O=C(CCN1CCCCC1)NCC[C@H]1CC[C@@H](NS(=O)(=O)c2cccc(Cl)c2)[C@@H](CO)O1 | 0.94 ± 0.026
COc1ccc(NC(=O)N(C)C[C@@H]2Oc3c(NS(=O)(=O)c4c(C)noc4C)cccc3C(=O)N([C@@H](C)CO)C[C@@H]2C)cc1 | 0.9184 ± 0.007
COc1ccc(S(=O)(=O)N2C[C@H](O)COC[C@@H]3O[C@@H](CC(=O)N[C@@H]4CCN(Cc5ccccc5)C4)CC[C@H]32)cc1 | 1.03 ± 0.14

SMILES | viability index
CN1C(=O)c2cc(NC(=O)c3cnccn3)ccc2OC[C@H]2O[C@@H](CC(=O)NCC3CCCCC3)CC[C@@H]21 | 0.9938 ± 0.0065
COCC(=O)N1C[C@H]2[C@@H](c3ccccc31)[C@@H](CO)N2C(=O)c1ccccc1F | 1.05 ± 0.095
CCC(=O)N(C)C[C@@H]1[C@@H](c2ccccc2)[C@H](CO)N1Cc1cccnc1 | 1.0474 ± 0.00016
C[C@@H]1C/C=C/C[C@H](c2ccc3c(c2)OCO3)NC(=O)[C@H](C)N(C)C(=O)c2ccccc2O1.C[C@@H]1C/C=C\C[C@H](c2ccc3c(c2)OCO3)NC(=O)[C@H](C)N(C)C(=O)c2ccccc2O1 | 1.04 ± 0.2
C/C=C/c1ccccc1[C@@H]1[C@H](C#N)N(c2ncc(CC)s2)[C@H]1CO | 1.08 ± 0.068
O=C1CCCc2cnnn2COC[C@H](Cc2ccccc2)N1 | 1.01 ± 0.054
CO[C@H]1CN(C)C(=O)c2cc(NC(=O)Cc3ccccc3)ccc2OC[C@H](C)N(C(=O)c2ccccc2F)C[C@H]1C | 1.04 ± 0.03
C[C@@H]1CN([C@@H](C)CO)C(=O)c2cccc(NC(=O)c3ccncc3)c2O[C@@H]1CN(C)Cc1ccc2c(c1)OCO2 | 1.0317 ± 0.00039
CO[C@@H]1CN(C)C(=O)c2cc(NS(=O)(=O)c3cccc(Cl)c3)ccc2OC[C@@H](C)NC[C@H]1C | 1.03 ± 0.026
O=C(NC1CCCC1)[C@@H]1[C@@H](CO)[C@@H]2Cn3c(cccc3=O)[C@@H]2N1CCc1ccccc1 | 1.06 ± 0.095
O=C1N[C@@H](c2ccccc2)COCn2nncc2CC[C@@H]1Cc1ccccc1 | 1 ± 0.045
Cc1ccc(OC(=O)N(C)C[C@H]2OCc3ccccc3-c3ccccc3C(=O)N([C@@H](C)CO)C[C@@H]2C)cc1 | 0.996 ± 0.045
COc1cccc(CN2CCCCN3[C@@H](CO)[C@@H](c4ccc(-c5ccccc5OC)cc4)[C@@H]3C2)c1 | 0.858 ± 0.018
C[C@@H]1CCCCO[C@H](CN(C)S(=O)(=O)c2ccc(Cl)cc2)[C@@H](C)CN([C@@H](C)CO)C(=O)c2cc(NC(=O)Nc3ccc(C(F)(F)F)cc3)ccc2O1 | 1.08 ± 0.17
C[C@@H]1CN([C@H](C)CO)C(=O)c2cc(NC(=O)Nc3ccc(C(F)(F)F)cc3)ccc2O[C@@H](C)CCCCO[C@@H]1CN(C)CC1CCCCC1 | 1.01 ± 0.049
O=C(NC1CCCC1)N[C@@H]1C=C[C@H](CC(=O)N2CCOCC2)O[C@@H]1CO | 1.17 ± 0.036
CS(=O)(=O)N1CC(=O)N2[C@H](CO)[C@@H](c3ccc(C#Cc4ccc(F)cc4)cc3)[C@H]2C1 | 1.01 ± 0.0094
O=C1CCCCn2nncc2COC[C@@H](Cc2ccccc2)N1 | 1.02 ± 0.017
CCCNC(=O)N1[C@@H](C#N)[C@@H](c2ccc(-c3ccccc3F)cc2)[C@@H]1CO | 1.11 ± 0.021
N#C[C@H]1[C@H](c2ccc(-c3cccc(F)c3)cc2)[C@H](CO)N1C(=O)NC1CCCC1 | 1.01 ± 0.12
COc1ccc(NC(=O)N2CC(=O)N3[C@H](C2)[C@H](c2ccc(Br)cc2)[C@@H]3CO)cc1 | 1.03 ± 0.065
O=C(C1CCCCC1)N1[C@H](CO)[C@H]2c3ccccc3NC[C@H]21 | 1.07 ± 0.032
C[C@@H]1CN([C@H](C)CO)S(=O)(=O)c2ccc(-c3cccc(C#N)c3)cc2O[C@H]1CN(C)C(=O)c1ccccc1 | 0.98099 ± 0.00081
